From patent publication USRE49949E1, “Reducing risk of contracting clostridium-difficile associated disease” (The Board of Regents of the Nevada System of Higher …, priority 2012, dated 2024) come the findings set out here.

The subject of data set [1] is bile salt hydrolases (BSHs) of B. longum.
Data set [2] has as its system Caco-2 monolayers.
The nature of data set [3]: in vitro. The following applies: human, Caco-2.
Data set [4] has as its system C. difficile cells. The data set is described as follows: Effect of CamSA on bacterial growth. The note with it: 10 mM CamSA in medium.
For data set [5], the system named is B. longum. The data set is described as follows: Effect of CamSA on bacterial growth. The following applies: 10 mM CamSA in medium.
Data set [6] deals with macrophages J774A.1. The data set is described as follows: Cytotoxicity of CamSA. Type of data set: cell-based. The note with it: 200 μM CamSA.
For data set [7] the following is noted: for signs of toxicity / side effects: 50 mg/kg.
The subject of data set [8] is Vero cells. Type of data set: cell-based. The following applies: 200 μM CamSA.
In data set [9] the test system is C. difficile strain 630 spores. The data set is described as follows: CamSA dosage timing in CDI prevention.
Data set [10] concerns E. coli DH5α. The data set is described as follows: Effect of CamSA on bacterial growth. The note with it: 10 mM CamSA in medium.
Data set [11] concerns BSHs secreted by L. gasseri. The following applies: Lactobacillus gasseri, 24 h.
Data set [12] deals with L. gasseri. Put plainly: Effect of CamSA on bacterial growth. The following applies: 10 mM CamSA in medium.
For data set [13], the system named is Caco-2 cells. The data set is described as follows: Cytotoxicity of CamSA. In kind it is cell-based.
The test system of data set [14] is Vero cells. Put plainly: Cytotoxicity of CamSA. In kind it is cell-based.
The test system of data set [15] is E. coli cultures. Put plainly: Stability in E. coli cultures. The following applies: 24 hour incubation.
The subject of data set [16] is C. difficile strain 630 spores. The data set is described as follows: CDI prophylaxis in mouse CDI model. In kind it is in vivo, mice. The following applies: for development of CDI: 10^8 CFU spores.
The mark [17] stands for this setting: taurocholate group, dose not given.

Structures are written as SMILES. Like-named read-outs stand apart in the source and are kept apart here.

As usually defined, the Papp A→B is the apparent permeability from the apical to the basolateral side of a cell layer. The term Papp B→A denotes how fast a substance crosses the layer from the basolateral side. In general, efflux ratio refers to the permeability from basolateral to apical divided by that in the opposite direction, in the common usage. As to `C[C@H](CCC(=O)Nc1cccc(S(=O)(=O)O)c1)[C@H]1CC[C@H]2[C@@H]3[C@H](O)C[C@@H]4C[C@H](O)CC[C@]4(C)[C@H]3C[C@H](O)[C@]12C` [CamSA, 3-[(3α,7α,12α-trihydroxy-24-oxo-5β-cholan-24-yl)amino]benzenesulfonic acid], in data set [1], the “hydrolysis to cholic acid by B. longum culture” value is listed as “hydrolyzed to cholic acid at similar rates”. Also, in data set [2] (Caco-2), the “A→B apical to basolateral apparent permeability (Papp)” value (shortened to “A→B apical”) is listed as 0.0 10^−6 cm s^−. Also, the Papp A→B at 2 h, 10 µM in data set [3] is under 1 ×10⁻⁶ cm/s. Further, in data set [3], the apparent permeability from basolateral to apical (Papp B→A) at 2 h, 10 µM turned out to be 10.9 ×10⁻⁶ cm/s. The efflux ratio at 2 h, 10 µM in data set [3] was over 2. In addition, the recovery in [3] was found to be 100%. Moreover, the “growth in presence of CamSA” value in [4] is recorded as “grew normally”; in data set [5] it was “unaffected”; in data set [10], “unaffected”; in data set [12], “unaffected”. Besides, the “cell viability, visual observation and trypan blue staining” value in data set [6], in [13] and in [14] was “appeared healthy” throughout. Also, in data set [7] (mice, gavage, 3 consecutive days), the “signs of toxicity / side effects” value is “no signs of toxicity”. Further, in data set [7] (mice, 50 mg/kg chenodeoxycholate, 50 or 300 mg/kg CamSA, weight daily), the weight changes entry is reported as “no weight changes”. The “cell killing by spent media from CamSA treated cultures” value in data set [8] is reported as “less effective at killing”. The “delay of disease onset compared to DMSO-treated animals” value in [9] (300 mg/Kg at 12 hours post-infection) was found to be 24 h. The “time to clinical endpoint post infection” value in data set [9] (300 mg/kg at 9 or 12 hours post-challenge) turned out to be 48 h. Also, the “Animals with CDI symptoms” value is given as 0/5 in data set [9] (Group I, first 300 mg/Kg CamSA dose 0 h after challenge); 0/5 in data set [9] (Group II, first 300 mg/Kg CamSA dose 3 h after challenge); 0/5 in data set [9] (Group III, first 300 mg/Kg CamSA dose 6 h after challenge); 5/5 in [9] (Group IV, first 300 mg/Kg CamSA dose 12 h after challenge); 5/5 in data set [16] (5 mg/Kg); 5/5 in data set [16] (25 mg/Kg). For the same compound, the “Animals with CDI symptoms” value in [16] (50 mg/Kg) and in data set [16] (300 mg/Kg) was 0/5 in each case. The “fraction hydrolyzed to cholic acid by L. gasseri” value in [11] is given as “Less than 30%”. Further, the “stability with E. coli cultures” value in [15] is on record as “stable”. The “Average weight change 3 days post challenge” value was −8% in [16] (5 mg/Kg), −05% in [16] (25 mg/Kg), “+05%” in data set [16] (50 mg/Kg) and “+06%” in [16] (300 mg/Kg). Besides, in [16] (5 or 25 mg/Kg), the “development of CDI” value is “developed CDI, but disease onset and severity were less pronounced”. Moreover, in data set [16] (50 or 300 mg/kg), the “time asymptomatic animals remained free of CDI signs post-challenge” value is given as “at least 14 days”.

Take `CNC(=C[N+](=O)[O-])NCCSCc1ccc(CN(C)C)o1` [Ranitidine]: in data set [2] (human, Caco-2, 2 h, 10 µM), the “A→B apical” value is on record as 0.3 10^−6 cm s^−, the “B→A basolateral to apical apparent permeability (Papp)” value is given as 1.8 10^−6 cm s^− and the “Efflux Ratio” value worked out at 5.3.

As to `C[C@H](CCC(=O)NCCS(=O)(=O)O)[C@H]1CC[C@H]2[C@@H]3[C@H](O)C[C@@H]4C[C@H](O)CC[C@]4(C)[C@H]3C[C@H](O)[C@]12C` [Taurocholate, 2-[(3α,7α,12α-trihydroxy-24-oxo-5β-cholan-24-yl)amino]ethanesulfonic acid, reference compound], the “hydrolysis to cholic acid by B. longum culture” value in data set [1] is listed as “hydrolyzed to cholic acid at similar rates”. Moreover, the “stability with E. coli cultures” value in data set [15] is “stable”. Also, in [16] (setting [17]), the “Animals with CDI symptoms” value is reported as 3/3 and the “Average weight change 3 days post challenge” value is −18%.

On to `CC(=O)CC(c1ccccc1)c1c(O)c2ccccc2oc1=O` (stereo not drawn) [Warfarin], for which, in [2] (human, Caco-2, 2 h, 10 µM), the “A→B apical” value is on record as 42.9 10^−6 cm s^−, the “B→A basolateral to apical apparent permeability (Papp)” value was 16.0 10^−6 cm s^− and the “Efflux Ratio” value came out at 0.4.

Turning to `C[C@H](CCC(=O)O)[C@H]1CC[C@H]2[C@@H]3[C@H](O)C[C@@H]4C[C@H](O)CC[C@]4(C)[C@H]3CC[C@]12C` [chenodeoxycholate, reference compound], the “signs of toxicity / side effects” value in data set [7] (mouse, in vivo) is given as “did not cause any observable side effects”. Also, the “signs of toxicity / adverse effects” value in data set [7] (mouse, in vivo, 300 mg/kg) is listed as “caused immediate death”. Moreover, in data set [16] (50 mg/kg), the “delay of CDI onset” value came out at 24 h and the “development of CDI” value was “moderate to severe signs of CDI”.
